# Assay results published in PubChem BioAssay (NCI).
#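 A five-concentration, 48-hour dose response in 96-well plates underlies each endpoint, interpolated linearly between surrounding concentrations. TGI marks complete inhibition of growth.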 The source holds more than one record for some entries. This is not the full list of results. An entry can have further records. The tests behind the records often covered other concentration ranges, which the source does not state; a value can be the end of its range.
# System: MDA-MB-468 breast
# Experiment: NCI-60 cell line screen, 48 h
compound,measurement,value
Cc1ccnc(Nc2ccc([N+](=O)[O-])c(NCCN3CCOCC3)n2)c1,TGI,74.6 nM and 24.2 µM
